Source: the supplement of paper PMC12632987
Whole data set: some 2,300 sequences, median “median log2 fold change of GCK-ALFA target abundance (FLAG IP / Myc IP barcode read proportion)” near 0.095, cut for the lowest 2% near -0.47. The list shows a part of the results.

B1: LC3A_45_1977 (protein)
chain: MAEATLDVLVPRELAEAALEALKRGAERLLEERGPGVEVDLEALEESYRATRDEEEVLLTVRIRAPTRQEALDLADELVEELERELGRPVAAAISVEELP
B2: LC3A_3_1830 (protein)
chain: MEEELEETLKLLKEAGHSEETLEALKETVKKLLEKGYEEAAKTLLELVREAIHLPSELLLEALEEVLKYVEENDDSEEETTEKIKEIFNLYRNEYEIEEL
B3: LC3A_132_250 (protein)
chain: SEELLEKALKELKEKLEKVVDALKAGEDWLPLIKELDELAEEYAEKLSLEDTEELVEESEKYAEKLFAERLDPNDVEARRALDIIEMLLDGVLIEKELKS
B4: LC3A_free_46_2382 (protein)
chain: YKANIDIDFGAMDKETAEKMAEEIKKAAKEIAKKTGVEIKVDIEIITDEEGETYLNVNITIEGEDKEKVKKAVNELLDKIDEIAEKANVSYIISVDFEDT
B5: LC3A_28_932 (protein)
chain: MTVEEIIARIRATADAAIAAGEDALIEVEIGPDTTVEEARRIMEELEEEVARLSAAGLKVDVVIDLDDVSQEVLDTVMDRAEEIEAAYPQANVIIALDEE
B6: LC3A_3_1651 (protein)
chain: MEEKIEKLLKRLKEKGKSEEVLEAVRKALEALKEKGYEEALEKFIELLEELEDLSDELLLELAEEVLELVETSDLSEEELTKEIEEIAKTIRNEGEIIEL
B7: LC3A_3_1471 (protein)
chain: EDPLIAEAEAALKAAGVPPEAVAEIVAALRRLAEHGVLEAAVEELKEALKSPNATPEKLVRLARELAERVEREGLTPEEAREEARVLRLEYIEIEEIDEE
B8: LC3A_147_432 (protein)
chain: YITEVDIDVLTKDAEEEVLEAAREIVEELRAKGYKVELEVEVEELENGEKFIDIRIIVEAETEEEAKEAADYIVDRFDELYEKNKDKILGYIISVEIKEK
B9: LC3A_102_143 (protein)
chain: DLEEKKKKLKEEALKKVKEALEKDKSVTEEEKKKLLELAEKAIEATIENTVSEAQHGFSDIVAEDKRLEALEEIEKLNPKIAKLVKELIKKVEEELKKFM
B10: LC3A_28_1301 (protein)
chain: SALAEALEKVIAEAKKAAAAGEAKVFTIKVPGDANQEDIDKVIEAMKEIAEILKDVKGSAIIIDVDANLKQEHLDKLAKAAEEIEKKYPNVTVIIALEEP
B11: LC3A_132_324 (protein)
chain: SEEKVKKLREELNKLIEEAEKNIDDEKKVEELIKKIKELLEKASKEISPEEAAELFNEVADKLDEVAEKADEAGKENVALTLDGLRVEAEALAIREEEKI
B12: LC3A_147_469 (protein)
chain: YKTTVSIDILTKDAEEEVIKELKKIAEELKAEGYKVELEIKTEKLEDGTTFIEATITIEAETLEEAEEAANKVISLIDEMEEKLKDKILGSLISVEIEEV
B13: LC3A_free_39_2199 (protein)
chain: SEEEEEEAEEEILELAEEEGEEALEAAEELLEELEGNLELVEAVLEQVKRAKEEGADVLELLKRLLELVRKLQEEGKSEEEIIEAIEEEADVIINLIPID
B14: LC3A_28_901 (protein)
chain: GAALESARKALEEVKKAVAEGNTEPLVVEVVAPSKEEDVEEFNELLEELAEEASKMKGVTIIIDVDESVSQENIDKIIDKAEEIEEKYPNVTVIIALPED
B15: LC3A_free_39_2221 (protein)
chain: MEEELEAVLREIAEESGLDYEEVRARMEELQRVGGLSMEQMLEIARALLEAVRAGADAREILEEMLAIAREMTAAGKSPEEIAAAILQTIEDARNLVPLE
B16: LC3A_28_1277 (protein)
chain: SEIDKSLAAALAAAKEAKAKGESAVITIKVPGTATEEDIAKVIATLEEIAEILKDVPNQSIVIDVDGKVPQEYIDKIADKAEEIEKKYPNITVIIALGEE
B17: LC3A_3_1799 (protein)
chain: MEELIEELLKKLKEAGKSEETIEAVRRAAELLKERGFEEALKTFIEEMEKLIDAPDELILEFAEEVLEKLETEDLSEEELIEFIKELARLAKNESEIEEL
B18: LC3A_free_8_2492 (protein)
chain: KSEELAKAASDALDKLEEELVKEAKKLGVSELDILDISLEIGSTIAEIYTKRNDSPEEILKTLKEGLEEVIKLAEEIDEELAKKTKELSEKVIKEVEELI
B19: LC3A_free_8_2468 (protein)
chain: KSQEVVDTVTSGLDELEKEVEKKAKELGLSRLDILDLSLLIGSVIADVISNSDKSVEEIKKTFEEGMEEVIKRAKELSEELAELVKKGKEKALEKLKKLE
B20: LC3A_3_1815 (protein)
chain: MEKEIEEAIKLLKEAGASEETIEAFKKAVEALLEKGYEETAKTLIELAKELKDLPDELLLEFFKEVLELVETSDDNEEEIKEKVKEIASTVRNESEIIEL
B21: LC3A_free_8_2470 (protein)
chain: SSQKAVDAAVEGLDELEKEVTEKAKELGLSRLDILELELEIGSVIAEIISLVDKSIEEIIKAFEEDMEDVIKLAKEISPEVAEIVEKAKEKILKKLKELE
B22: LC3A_28_942 (protein)
chain: MTTQEDLEAVLAQAEEAAKKGEATTFTLTVTPEDTQEDVERVLDTVERIAELLKDIKGTGIVVDVEAGVPQEHIDYLAERLEEIEKKYPNVTVIIALDED
B23: LC3A_3_1540 (protein)
chain: MDAAVAAALARLRAAGASAATLAAFEAAVAALRERGYDAALETLIAETDRLLGLSDALLLAFFEEVLELVETEDIDEEELIARIREIARTTLSEAEIEEL
B24: LC3A_28_976 (protein)
chain: SEIDKAIEKALAEAKAAAAAGEPAVITITVPGSATEEEVEKVIEALEEIAKILAGVKGSAIIIDLTGGVKQEHRDKLADAAEEIEEKYPNVTVILALDEE
B25: LC3A_3_1354 (protein)
chain: SEELIEEQIERLREAGFSEEVLEAARAAFEGLAAQGHEEGIELLTEALLKHKDAPEEKKLRVLNNLLAEVQANPNLTQEEVEELVKLADLDLAIEELDEE
B26: LC3A_59_2012 (protein)
chain: REEVREWVEKIYEAYDDVEKFYELVKKAYEELKKKYSDEELLKLVKEEVERLIKEGKDPRKMKAIYESFKAVIEIKDEEKQKEEIRLIILESEIEEIDEE
B27: LC3A_free_8_2543 (protein)
chain: KSQEAVEKVTKLLDEAEEEITKKAKELGKDRLDILDLELLIGELKIEVIELVDESIEKIKEEVKEGMKEIIKKAKEISEELAKIAEKAEKEILEKLEELE
B28: LC3A_3_1536 (protein)
chain: LDEEIAATLAELKAAGKSEETLEAVREAAELLKEKGYDEALKTFLEETRKLIDLPDELVLDFAEEVLNLVKTEDISEEELIKRIKEIARTIRNEAEIIEL
B29: LC3A_127_166 (protein)
chain: EKKKLLEELLKLTEELIKLLDDPNASLEEILEKAKKLLEVAKELLKKDPSAKPILEDAEQLLKTVEQLKKAPPEQQPELREHASMIAEGILIEAESLLLK

Biological target: MAP1LC3A, Q9H492
Experiment: median log2 fold change of GCK-ALFA target abundance (FLAG IP / Myc IP barcode read proportion) (log2 ratio); each designed protein is fused to an ALFA-tag nanobody in HEK293 cells to bring the named protein to FLAG-tagged glucokinase (GCK); Myc marks an untargeted standard; higher = target protein stabilised (more abundant)
Conditions: target protein: 3xFLAG-MCP-GCK-ALFA reporter; HEK293 landing pad (RPLP)
Method in brief: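 The readout is target abundance, the per-binder median log2 ratio of FLAG to Myc barcode read proportions. It came from HEK293 landing-pad cells carrying a recombined ALFA-nanobody-fused binder library, induced with 2 μg mL^−1 doxycycline and transfected with a plasmid for a FLAG-tagged target and a Myc-tagged standard. After 48 h, lysates were immunoprecipitated with anti-FLAG and anti-Myc, and circular RNA barcodes were reverse transcribed, amplified and sequenced. Each barcode needed a proportion of at least 10^−7 in both replicates and each binder at least 3 barcodes per replicate, a pseudocount of 10^−6 was added, and the replicates were pooled.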

Binder | median log2 fold change
B1 | 0.107
B2 | 0.267
B3 | -0.0868
B4 | 0.206
B5 | -0.205
B6 | 0.199
B7 | 0.0692
B8 | -0.315
B9 | 0.478
B10 | 0.169
B11 | 0.284
B12 | -0.0374
B13 | 0.103
B14 | -0.191
B15 | 0.15
B16 | 0.265
B17 | 0.435
B18 | 0.29
B19 | -0.0949
B20 | 0.127
B21 | -0.0391
B22 | 0.118
B23 | 0.222
B24 | 0.227
B25 | 0.184
B26 | 0.156
B27 | 0.25
B28 | 0.295
B29 | 0.2
